# According to the supplement of paper PMC9446081:
# Out of some 39,000 compounds screened, about 220 (0.56%) showed activity. Some of the results follow.
# System: Escherichia coli K-12 BW25113
# Assay: relative growth (OD600 normalised to plate interquartile mean) (fraction); higher = less growth inhibition, active = 0.2 or less
# Settings: 50 µM; LB; incubation time: overnight (16-24 h)
# 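Note: static incubation at 37 °C against the wild-type strain, values averaged over two biological replicates.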
row,SMILES,relative growth
1,C[C@H](CO)N1C[C@H](C)[C@@H](CN(C)Cc2ccncc2)Oc2ccc(NC(=O)CCCN(C)C)cc2C1=O,inactive: 0.982
2,Cc1noc(C)c1NC(=O)Nc1ccc2c(c1)C(=O)N([C@H](C)CO)C[C@@H](C)[C@@H](CN(C)CC1CCCCC1)OCCCC[C@@H](C)O2,inactive: 0.972
3,Cc1noc(C)c1S(=O)(=O)Nc1ccc2c(c1)C(=O)N([C@@H](C)CO)C[C@H](C)[C@@H](CN(C)Cc1ccc(Cl)c(Cl)c1)OCCCC[C@H](C)O2,inactive: 0.995
4,CON=C(C(=O)NC1C(=O)N2C(C(=O)[O-])=C(COC(C)=O)CSC12)c1csc(N)n1.[Na+] (centres undefined),active: 0.0428
5,O=C(C[C@H]1C[C@H]2c3cc(NS(=O)(=O)c4ccc(F)cc4)ccc3O[C@H]2[C@@H](CO)O1)NCc1ccccn1,inactive: 1.03
6,CC(=O)O[C@H]1CC[C@]2(C)[C@H]3CC[C@]4(C)C(=CC(=O)O[C@H]4c4ccoc4)[C@]3(C)[C@H](OC(C)=O)C[C@H]2C1(C)C,inactive: 0.992
7,C[C@@H]1CN([C@@H](C)CO)C(=O)c2cccc(NC(=O)C3CCOCC3)c2O[C@@H]1CN(C)S(=O)(=O)c1ccccc1,inactive: 0.967
8,C[C@@H]1CN([C@@H](C)CO)C(=O)c2cc(NS(=O)(=O)c3cn(C)cn3)ccc2O[C@@H]1CN(C)Cc1ccc(C(=O)Nc2ccccc2N)cc1,inactive: 0.946
9,CNC[C@H]1Oc2ccc(NC(=O)CCN3CCOCC3)cc2CC(=O)N([C@@H](C)CO)C[C@H]1C,inactive: 0.976
10,COc1ccc2c3c([nH]c2c1)[C@H](CO)N(C[C@]13CN(Cc2ccccc2F)C1)S(=O)(=O)c1cn(cn1)C,inactive: 0.979
11,Cc1noc(C)c1S(=O)(=O)N(C)C[C@@H]1Oc2ccc(NS(=O)(=O)c3ccccc3)cc2CC(=O)N([C@H](C)CO)C[C@@H]1C,inactive: 1.02
12,COc1ccc(CN(C)C[C@H]2OCCCC[C@@H](C)Oc3ccc(NS(=O)(=O)c4ccccc4)cc3C(=O)N([C@H](C)CO)C[C@H]2C)cc1,inactive: 0.977
13,Cc1cccc(NC(=O)Nc2ccc3c(c2)C(=O)N(C)[C@@H]2CC[C@@H](CC(=O)NCc4ccccc4Cl)O[C@H]2CO3)c1,inactive: 1.01
14,C[C@H]1CN([C@@H](C)CO)C(=O)c2cc(NC(=O)Nc3ccc4c(c3)OCO4)ccc2O[C@H]1CN(C)S(=O)(=O)c1cn(C)cn1,inactive: 0.985
15,Cc1ccccc1S(=O)(=O)N1C[C@H](O)COC[C@H]2O[C@@H](CC(=O)NCCc3ccccc3)CC[C@@H]21,inactive: 0.987
16,COc1ccc2c3c(n(c2c1)C)[C@@H](CO)N(CC1CCOCC1)C[C@]13CN(C1)C(=O)Cc1cccnc1,inactive: 0.992
17,CC(C)NC(=O)Nc1ccc2c(c1)C(=O)N([C@@H](C)CO)C[C@@H](C)[C@@H](CN(C)Cc1ccc(C(F)(F)F)cc1)OCCCC[C@@H](C)O2,inactive: 0.992
18,O=C(C[C@@H]1C[C@@H]2c3cc(NC(=O)Cc4ccncc4)ccc3O[C@@H]2[C@@H](CO)O1)NCc1ccc2c(c1)OCO2,inactive: 1.03
19,C[C@H]1CN([C@@H](C)CO)C(=O)c2cc(C#CC3(O)CCCC3)cnc2O[C@@H]1CN(C)S(C)(=O)=O,inactive: 0.977
20,C=CCC[C@H](Cc1ccc(F)cc1)C(=O)OC[C@@H](Cc1c[nH]c2ccccc12)NC(=O)[C@@H](CC=C)CC(=O)N[C@@H](CO)Cc1ccccc1,inactive: 1.02

row,SMILES,relative growth
1,O=C1O[C@H](c2ccccc2)[C@H](c2ccccc2)N2[C@H]1[C@@H](C(=O)N1CCCCCCC1)[C@]1(C(=O)Nc3ccccc31)[C@H]2c1ccc(O)cc1,inactive: 1.03
2,Nc1ncnc2nc[nH]c12,inactive: 0.971
3,COc1ccc(NC(=O)N(C)C[C@H]2Oc3ccc(NC(=O)CCCCCC(=O)Nc4ccccc4N)cc3CC(=O)N([C@H](C)CO)C[C@@H]2C)cc1,inactive: 1.01
4,C[C@@H]1CN([C@@H](C)CO)C(=O)c2cc(C#Cc3ccncc3)cnc2O[C@@H]1CN(C)S(=O)(=O)c1ccccc1F,inactive: 0.976
5,C[n+]1cccc(C(=O)O)c1,inactive: 0.979
6,Cn1ccnc1CO,inactive: 1
7,COCC(=O)N(C)C[C@H]1Oc2cc(C#CCC3CCCC3)ccc2S(=O)(=O)N([C@H](C)CO)C[C@H]1C,inactive: 0.964
8,C[C@@H]1CCCCO[C@H](CN(C)Cc2ccc(Cl)c(Cl)c2)[C@@H](C)CN([C@@H](C)CO)C(=O)c2cc(NC(=O)Cc3ccccc3)ccc2O1,inactive: 0.95
9,C[C@@H]1CCCCO[C@@H](CN(C)S(=O)(=O)c2cccs2)[C@@H](C)CN([C@@H](C)CO)C(=O)c2cc(NC(=O)Nc3cccc4ccccc34)ccc2O1,inactive: 1.01
10,C[C@@H]1CCCCO[C@H](CN(C)S(=O)(=O)c2ccc(Cl)cc2)[C@H](C)CN([C@@H](C)CO)C(=O)c2cc(NS(=O)(=O)c3cccs3)ccc2O1,inactive: 1.01
11,CCOc1nn(CC)cc1C(=O)O,inactive: 0.984
12,Cc1ccc(S(=O)(=O)Nc2ccc3c(c2)CC(=O)N([C@@H](C)CO)C[C@H](C)[C@@H](CN(C)S(=O)(=O)c2c(C)noc2C)O3)cc1,inactive: 0.984
13,C[C@H](CO)N1C[C@H](C)[C@@H](CN(C)S(=O)(=O)c2ccccc2)OCCCC[C@H](C)Oc2ccc(NC(=O)NC3CCCCC3)cc2C1=O,inactive: 1.02
14,C[C@H](CO)N1C[C@H](C)[C@H](CN(C)C(=O)CCC(F)(F)F)OCc2ccccc2-c2c(n(C)c3ccccc23)C1=O,inactive: 0.979
15,OC1OC(c2ccc(Cl)c(Cc3ccc(OC4CCOC4)cc3)c2)C(O)C(O)C1O (centres undefined),inactive: 1.01
16,O=C(C[C@@H]1C[C@@H]2c3cc(NC(=O)C4CCOCC4)ccc3O[C@@H]2[C@@H](CO)O1)NCc1cc(F)ccc1F,inactive: 0.979
17,CO[C@@H]1CN(C)C(=O)c2ccc(NC(=O)Nc3ccc(Cl)cc3)cc2OC[C@H](C)N(C(=O)Nc2c(C)noc2C)C[C@H]1C,inactive: 0.996
18,O=C(C[C@@H]1C=C[C@H](NS(=O)(=O)c2ccccc2)[C@@H](CO)O1)NCc1ccncn1,inactive: 1.01
19,C[C@@H]1CN([C@@H](C)CO)C(=O)c2cccc(NC(=O)Nc3ccc(F)cc3)c2O[C@@H]1CN(C)C(=O)Nc1ccc(C(F)(F)F)cc1,inactive: 1
20,C[C@@H]1CN([C@@H](C)CO)C(=O)Cc2cc(NC(=O)C3CC3)ccc2O[C@H]1CN(C)S(=O)(=O)c1ccccc1,inactive: 1.02

row,SMILES,relative growth
1,CC(CC(=O)C1OC1(C)C)C1C(=O)CC2(C)C3=CCC4C(C)(C)C(OC5OCC(O)C(O)C5O)CCC45CC35C(O)CC12C (centres undefined),inactive: 0.978
2,C[C@H](CO)N1C[C@H](C)[C@@H](CN(C)S(C)(=O)=O)Oc2ccc(NC(=O)CCCCCC(=O)Nc3ccccc3N)cc2C1=O,inactive: 0.985
3,COc1ccc2c3c([nH]c2c1)[C@@H](CO)N(C[C@]13CCN(CC1)C(=O)Nc1ccccc1)C(=O)Nc1ccc(cc1)F,inactive: 0.987
4,C#CCCCCCCCCCCC[C@H](O)C[C@H](O)COC(C)=O.C=CCCCCCCCCCCC[C@H](O)C[C@H](O)COC(C)=O,inactive: 0.803
5,COc1ccc(C#Cc2ccc3c(c2)[C@]2(C(=O)N3)[C@H](C(=O)Nc3nc4ccccc4s3)[C@H]3C(=O)O[C@H](c4ccccc4)[C@H](c4ccccc4)N3[C@@H]2c2ccccc2OCCO)cc1,inactive: 1.02
6,NCCCS(=O)(=O)O,inactive: 0.971
7,C[C@H]1CN([C@@H](C)CO)C(=O)Cc2cc(NC(=O)Nc3ccc4c(c3)OCO4)ccc2O[C@H]1CN(C)S(C)(=O)=O,inactive: 0.989
8,C[C@@H]1CCCCO[C@@H](CN(C)S(=O)(=O)c2cccs2)[C@@H](C)CN([C@@H](C)CO)C(=O)c2cc(NC(=O)c3ccccc3)ccc2O1,inactive: 1.02
9,CC#CCO[Si](C#CCCCCCC)(C(C)C)C(C)C,inactive: 0.992
10,C[C@@H]1CCCCO[C@@H](CN(C)Cc2ccc(Cl)c(Cl)c2)[C@H](C)CN([C@H](C)CO)C(=O)c2cc(NS(=O)(=O)c3ccc(F)cc3)ccc2O1,inactive: 1.03
11,COc1ccccc1-c1ccc2n(c1=O)C[C@@H]1[C@@H](CO)[C@H](C(=O)NCC3CC3)N(S(C)(=O)=O)[C@H]21,inactive: 0.996
12,C[C@@H]1CN([C@H](C)CO)C(=O)c2cc(NC(=O)CCN3CCOCC3)ccc2O[C@H]1CN(C)Cc1ccc2c(c1)OCO2,inactive: 1.04
13,C[C@H](CO)N1C[C@H](C)[C@H](CN(C)S(=O)(=O)c2cccs2)Oc2ncc(-c3ccc(F)cc3)cc2C1=O,inactive: 0.964
14,C[C@@H]1CN([C@H](C)CO)C(=O)c2c(c3ccccc3n2C)-c2ccccc2CO[C@H]1CN(C)C(=O)c1ccc(F)cc1,inactive: 1.02
15,C[C@@H]1CN([C@H](C)CO)C(=O)Cc2cc(NC(=O)Cn3cnnn3)ccc2O[C@H]1CN(C)Cc1ccc2c(c1)OCO2,inactive: 0.995
16,CC(C)(C)[S@@](=O)N1Cc2cc(C(=O)NCCN3CCCCC3)nc(-c3cccc(-c4cccc(C#N)c4)c3)c2[C@H]1CCO,inactive: 1.01
17,COc1ccc(NC(=O)N(C)C[C@@H]2OCc3cnnn3CCCC(=O)N([C@H](C)CO)C[C@H]2C)c(OC)c1,inactive: 0.993
18,CC(C)NC(=O)Nc1cccc2c1O[C@H](CN(C)Cc1ccc(-c3ccccc3)cc1)[C@H](C)CN([C@H](C)CO)C2=O,inactive: 1.01
19,CCOC(=O)CCCCCC(=O)Nc1ccc2c(c1)C(=O)N([C@@H](C)CO)C[C@H](C)[C@H](CN(C)S(=O)(=O)c1ccc(OC)cc1)OCCCC[C@H](C)O2,inactive: 1.02
